Laboratory results: the supplement of paper PMC8728848
Some of the results follow.

Columns and labels:
Assay in all cases: glycan array binding signal (z-score within array); higher = stronger binding
Conditions in all cases: glycan notation: IUPAC condensed, linker removed
[1] = molecular target: Gal(b1-3)GalNAc(b1-3)Gal
In short: (§1)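 Columns mapping to the same glycan were averaged after glycan names were converted to IUPAC-condensed notation. The data come from 3228 arrays in the Consortium for Functional Glycomics database, limited to those with an available protein sequence. Binding is reported as a within-array Z-score averaged across arrays of one protein sequence and across linkers.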

[2] = molecular target: Gal(b1-3)GalNAc(b1-3)Gal(a1-4)Gal(b1-4)Glc
In short: as §1

[3] = molecular target: Gal(b1-3)GalNAc(b1-4)Gal(b1-4)Glc
In short: as §1

[4] = molecular target: Gal(b1-3)GalNAc(b1-4)[Neu5Ac(a2-3)]Gal(b1-4)Glc
In short: as §1

[5] = molecular target: Gal(b1-3)GlcNAc
In short: as §1

[6] = molecular target: Gal(b1-3)GlcNAc(a1-3)Gal(b1-4)GlcNAc
In short: as §1

[7] = molecular target: Gal(b1-3)GlcNAc(a1-6)Gal(b1-4)GlcNAc
In short: as §1

[8] = molecular target: Gal(b1-3)GlcNAc(b1-2)Man
In short: as §1

[9] = molecular target: Gal(b1-3)GlcNAc(b1-2)Man(a1-3)[Gal(b1-3)GlcNAc(b1-2)Man(a1-6)]Man(b1-4)GlcNAc(b1-4)GlcNAc
In short: as §1

[10] = molecular target: Gal(b1-3)GlcNAc(b1-2)Man(a1-3)[Gal(b1-3)GlcNAc(b1-2)Man(a1-6)]Man(b1-4)GlcNAc(b1-4)[Fuc(a1-6)]GlcNAc
In short: as §1

[11] = molecular target: Gal(b1-3)GlcNAc(b1-2)Man(a1-3)[GlcNAc(b1-4)][Gal(b1-3)GlcNAc(b1-2)Man(a1-6)]Man(b1-4)GlcNAc(b1-4)GlcNAc
In short: as §1

[12] = molecular target: Gal(b1-3)GlcNAc(b1-2)[Gal(b1-3)GlcNAc(b1-6)]Man(a1-6)[Gal(b1-3)GlcNAc(b1-2)Man(a1-3)]Man(b1-4)GlcNAc(b1-4)GlcNAc
In short: as §1

[13] = molecular target: Gal(b1-3)GlcNAc(b1-3)Gal(b1-3)GlcNAc
In short: as §1

[14] = molecular target: Gal(b1-3)GlcNAc(b1-3)Gal(b1-4)Glc
In short: as §1

[15] = molecular target: Gal(b1-3)GlcNAc(b1-3)Gal(b1-4)GlcNAc
In short: as §1

[16] = molecular target: Gal(b1-3)GlcNAc(b1-3)Gal(b1-4)GlcNAc(b1-2)Man(a1-3)[Gal(b1-3)GlcNAc(b1-3)Gal(b1-4)GlcNAc(b1-2)Man(a1-6)]Man(b1-4)GlcNAc(b1-4)GlcNAc
In short: as §1

[17] = molecular target: Gal(b1-3)GlcNAc(b1-3)Gal(b1-4)GlcNAc(b1-2)[Gal(b1-3)GlcNAc(b1-3)Gal(b1-4)GlcNAc(b1-6)]Man(a1-6)[Gal(b1-3)GlcNAc(b1-3)Gal(b1-4)GlcNAc(b1-2)Man(a1-3)]Man(b1-4)GlcNAc(b1-4)[Fuc(a1-6)]GlcNAc
In short: as §1

[18] = molecular target: Gal(b1-3)GlcNAc(b1-3)Gal(b1-4)GlcNAc(b1-3)Gal(b1-4)GlcNAc(b1-2)[Gal(b1-3)GlcNAc(b1-3)Gal(b1-4)GlcNAc(b1-3)Gal(b1-4)GlcNAc(b1-6)]Man(a1-6)[Gal(b1-3)GlcNAc(b1-3)Gal(b1-4)GlcNAc(b1-3)Gal(b1-4)GlcNAc(b1-2)Man(a1-3)]Man(b1-4)GlcNAc(b1-4)[Fuc(a1-6)]GlcNAc
In short: as §1

[19] = molecular target: Gal(b1-3)GlcNAc(b1-3)Gal(b1-4)GlcNAc(b1-6)[Gal(b1-3)GlcNAc(b1-3)]Gal(b1-4)Glc
In short: as §1

[20] = molecular target: Gal(b1-3)GlcNAc(b1-3)Gal(b1-4)[Fuc(a1-3)]GlcNAc
In short: as §1

[21] = molecular target: Gal(b1-3)GlcNAc(b1-3)Gal(b1-4)[Fuc(a1-3)]GlcNAc(b1-6)[Gal(b1-3)GlcNAc(b1-3)]Gal(b1-4)Glc
In short: as §1

[22] = molecular target: Gal(b1-3)GlcNAc(b1-3)GalNAc
In short: as §1

[23] = molecular target: Gal(b1-3)GlcNAc(b1-6)Gal(b1-4)GlcNAc
In short: as §1

[24] = molecular target: Gal(b1-3)GlcNAc(b1-6)GalNAc
In short: as §1

[25] = molecular target: Gal(b1-3)GlcNAc(b1-6)[Gal(b1-3)]GalNAc
In short: as §1

[26] = molecular target: Gal(b1-3)GlcNAc6S
In short: as §1

[27] = molecular target: Gal(b1-3)[Fuc(a1-4)]GlcNAc
In short: as §1

[28] = molecular target: Gal(b1-3)[Fuc(a1-4)]GlcNAc(b1-2)Man
In short: as §1

[29] = molecular target: Gal(b1-3)[Fuc(a1-4)]GlcNAc(b1-2)Man(a1-3)[Gal(b1-3)[Fuc(a1-4)]GlcNAc(b1-2)Man(a1-6)]Man(b1-4)GlcNAc(b1-4)[Fuc(a1-6)]GlcNAc
In short: as §1

[30] = molecular target: Gal(b1-3)[Fuc(a1-4)]GlcNAc(b1-3)Gal(b1-3)[Fuc(a1-4)]GlcNAc
In short: as §1

[31] = molecular target: Gal(b1-3)[Fuc(a1-4)]GlcNAc(b1-3)Gal(b1-4)[Fuc(a1-3)]GlcNAc
In short: as §1

[32] = molecular target: Gal(b1-3)[Fuc(a1-4)]GlcNAc(b1-6)GalNAc
In short: as §1

[33] = molecular target: Gal(b1-3)[GlcNAc(b1-6)]GalNAc
In short: as §1

[34] = molecular target: Gal(b1-3)[Neu5Ac(a2-6)]GalNAc
In short: as §1

[35] = molecular target: Gal(b1-3)[Neu5Ac(a2-6)]GlcNAc(b1-4)Gal(b1-4)Glc
In short: as §1

[36] = molecular target: Gal(b1-3)[Neu5Ac(b2-6)]GalNAc
In short: as §1

[37] = molecular target: Gal(b1-4)Gal
In short: as §1

[38] = molecular target: Gal(b1-4)GalNAc(a1-3)[Fuc(a1-2)]Gal(b1-4)GlcNAc
In short: as §1

B1: DC-ASGPR-short (Homo sapiens) (protein)
chain: MTRTYENFQYLENKVKVQGFKNGPLPLQSLLQRLRSGPCHLLLSLGLGLLLLVIICVVGFQNSKFQRDLVTLRTDFSNFTSNTVAEIQALTSQGSSLEETIASLKAEVEGFKQERQAVHSEMLLRVQQLVQDLKKLTCQVATLNNNASTEGTCCPVNWVEHQDSCYWFSHSGMSWAEAEKYCQLKNAHLVVINSREEQNFVQKYLGSAYTWMGLSDPEGAWKWVDGTDYATGFQNWKPGQPDDWQGHGLGGGEDCAHFHPDGRWNDDVCQRPYHWVCEAGLGQTSQESH
glycan array binding signal (z-score) [1]: -0.217
glycan array binding signal (z-score) [2]: 1.72
glycan array binding signal (z-score) [3]: -0.213
glycan array binding signal (z-score) [4]: 1.87
glycan array binding signal (z-score) [5]: 0.207
glycan array binding signal (z-score) [6]: -0.269
glycan array binding signal (z-score) [7]: -0.246
glycan array binding signal (z-score) [8]: -0.264
glycan array binding signal (z-score) [9]: -0.273
glycan array binding signal (z-score) [10]: -0.279
glycan array binding signal (z-score) [11]: -0.261
glycan array binding signal (z-score) [12]: -0.29
glycan array binding signal (z-score) [13]: -0.286
glycan array binding signal (z-score) [14]: -0.286
glycan array binding signal (z-score) [15]: -0.285
glycan array binding signal (z-score) [16]: -0.221
glycan array binding signal (z-score) [17]: 0.663
glycan array binding signal (z-score) [18]: 0.287
glycan array binding signal (z-score) [19]: -0.275
glycan array binding signal (z-score) [20]: -0.281
glycan array binding signal (z-score) [21]: -0.283
glycan array binding signal (z-score) [22]: -0.274
glycan array binding signal (z-score) [23]: -0.283
glycan array binding signal (z-score) [24]: 1.82
glycan array binding signal (z-score) [25]: -0.158
glycan array binding signal (z-score) [26]: -0.268
glycan array binding signal (z-score) [27]: -0.264
glycan array binding signal (z-score) [28]: -0.106
glycan array binding signal (z-score) [29]: -0.153
glycan array binding signal (z-score) [30]: -0.26
glycan array binding signal (z-score) [31]: -0.28
glycan array binding signal (z-score) [32]: 0.593
glycan array binding signal (z-score) [33]: -0.088
glycan array binding signal (z-score) [34]: -0.275
glycan array binding signal (z-score) [35]: -0.278
glycan array binding signal (z-score) [36]: -0.278
glycan array binding signal (z-score) [37]: -0.295
glycan array binding signal (z-score) [38]: -0.284
